Measured values: PubChem BioAssay AID894 (National Center for Advancing Translational Sciences (NCATS), 2007)
“And” between values parts separate entries of the source, which are not always exact repeats. Equal values may be shown once. Hit rate of the full screen: of about 150,000 compounds, about 6,500 (4.3%) were called active. Inconclusive results (about 12%) are left out. The call rests on the fitted dose curve; in most records, active means well fitted inhibition curve with a large enough effect (not every such curve was filed as active); inconclusive means small, poorly fitted or top-dose-only effect, or another doubt; inactive means no such curve, though single readings can be large or run the other way. The entries are a selection whose mix differs from that of the whole data set. Some structures have more than one record in an assay (separate samples or runs), and their calls can disagree.

molecular target: 15-hydroxyprostaglandin dehydrogenase [NAD(+)] (Homo sapiens) (UniProt P15428); experiment: qHTS Assay for Inhibitors of HPGD (15-Hydroxyprostaglandin Dehydrogenase); settings: purified HPGD, NADH fluorescence kinetic, PGE2 substrate; activity change, negative = inhibition: hits give low values
From the text: Human 15-Hydroxyprostaglandin dehydrogenase (HPGD) catalyzes the inactivation of prostaglandin E2, and plays a major role in cancer biology by antagonizing the oncogenic potential of cyclooxygenase type 2 (COX2). Assays are available, based on absorbance/fluorescence increase of NADH with the substrate 15-OH prostaglandin E2. References 1. Myung SJ, Rerko RM, Yan M, Platzer P, Guda K, Dotson A, Lawrence E, Dannenberg AJ, Lovgren AK, Luo G, Pretlow TP, Newman RA, Willis J, Dawson D, Markowitz SD. 15-Hydroxyprostaglandin dehydrogenase is an in vivo suppressor of colon tumorigenesis. […] 2. Yan M, Rerko RM, Platzer P, Dawson D, Willis J, Tong M, Lawrence E, Lutterbaugh J, Lu S, Willson JK, Luo G, Hensold J, Tai HH, Wilson K, Markowitz SD. 15-Hydroxyprostaglandin dehydrogenase, a COX-2 oncogene antagonist, is a TGF-beta-induced suppressor of human gastrointestinal cancers. Proc Natl Acad Sci U S A. 2004 Dec 14;101(50):17468-73. 3. Yang L, Amann JM, Kikuchi T, Porta R, Guix M, Gonzalez A, Park KH, Billheimer D, Arteaga CL, Tai HH, Dubois R, Carbone DP, Johnson DH. Inhibition of Epidermal Growth Factor Receptor Signaling Elevates 15-Hydroxyprostaglandin Dehydrogenase in Non-Small-Cell Lung Cancer. Cancer Res. 2007 Jun 15;67(12):5587-5593. Inhibition of HPGD activity was screened by utilizing prostaglandin as an electron donor and NAD+ as an electron acceptor/cofactor. An increase in the fluorescence intensity due to conversion of NAD+ to NADH was used to measure the enzyme activity. NIH Chemical Genomics Center [NCGC] Structural Genomics Consortium [SGC]
Buffer: 50 mM Tris-HCl, 0.01% Tween 20, pH 8. Enzyme Buffer: 50 mM Tris-HCl, 0.5 mM NAD+ and 0.01% Tween 20, pH 8. Reagents/Controls: Buffer in columns 3 and 4 as negative control (no enzyme). Substrate/cofactor solution: 1 mM NAD+ and 30 uM prostaglandin (Sigma, prostaglandin E2, # P5640) final concentrations dispensed throughout the plate. Enzyme: 20 nM HPGD final concentration in columns 1, 2, 5-48. Column 1 and 2 is neutral (100% activity). A titration of control inhibitor GW5074 (G6416 Sigma-Aldrich, St. Louis, MO) top concentration 10 mM in DMSO, then 1:2 dilution for a total of 16 concentrations in duplicate) was pin-transferred into column 2. Assay Steps: Three uL of enzyme were dispensed to 1536-well Greiner black solid bottom plates. Compounds and control inhibitor (23 nL) were transferred via Kalypsys PinTool. The plates were incubated for 15 min at room temperature, and then 1 uL of substrate/cofactor solution was added to start the reaction. The plates were immediately transferred to and read 5 times every 30 seconds on ViewLux High-throughput CCD imager (Perkin-Elmer) using 360 nm excitation and 450 nm emission fluorescence protocol. The fluorescence intensity difference between the last and the first time points was used to compute reaction progress.
On the % scale 0 is the no-effect control and ±100 the full control effect; potency means the concentration at half of the fitted maximal effect.

UniProt P15428, sequence (P15428 whole entry, looked up): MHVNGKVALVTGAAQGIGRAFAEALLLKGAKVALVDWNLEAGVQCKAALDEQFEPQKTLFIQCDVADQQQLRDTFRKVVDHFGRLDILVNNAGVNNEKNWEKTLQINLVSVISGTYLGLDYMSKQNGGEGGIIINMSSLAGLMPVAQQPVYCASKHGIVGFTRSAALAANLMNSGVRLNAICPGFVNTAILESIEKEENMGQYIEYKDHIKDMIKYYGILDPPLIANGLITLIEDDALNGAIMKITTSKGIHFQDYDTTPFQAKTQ

SMILES	activity change, negative = inhibition	Potency
O=C1C(=O)c2ccccc2C(O)=C1C1CCC(c2ccc(Cl)cc2)CC1 (stereo not drawn)	inactive: -16.3%	–
O=S(=O)(c1ccccc1)N(CC(O)Cn1c2ccccc2c2ccccc21)c1ccccc1 (stereo not drawn)	inactive: 32.5%	–
N[C@H](C(=O)N[C@@H]1C(=O)N2C(C(=O)O)=C(Cl)CS[C@@H]12)c1ccccc1	inactive: 4.2% and inactive: -10.6%	–
O=C(NCCCNc1ccc([N+](=O)[O-])cc1)C(F)(F)F	–	active: 20 µM
S=c1[nH]nc(-c2cccnc2)n1/N=C/C=C/c1ccccc1	–	active: 12.6 µM
Cc1ccccc1OCc1n[nH]c(=S)n1Cc1ccccc1	–	active: 14.1 µM
COc1ccccc1OCCNC(=O)c1cccs1	–	active: 15.8 µM
Cc1ccc(S(=O)(=O)N2CCC(C(=O)OC(C)C(=O)NCc3ccc4c(c3)OCO4)CC2)cc1 (stereo not drawn)	–	active: 17.8 µM
COc1ccc(S(=O)(=O)N2CCC(C(=O)N3CCCCC3)CC2)cc1Cl	–	active: 15.8 µM
Cc1cn(-c2ccc(Br)cc2)[nH]c1=O	–	active: 25.1 µM
CC(C)CCNC(=O)NC(=O)COC(=O)c1cc(S(=O)(=O)N2CCOCC2)ccc1N1CCCCC1	inactive: 73.7%	–
CCCN[C@@H](C)C(=O)Nc1ccccc1C	inactive: -9.25%	–
N#C/C(=C\c1ccc(O)c(O)c1)C(=O)NCc1ccccc1	inactive: -28.8%	–
O=C(CSc1cccs1)NCCc1ccccc1	–	active: 14.1 µM
COC(=O)[C@H](Cc1ccccc1)NC(=O)O[C@@H]1C(=O)c2cc(OC)ccc2O[C@H]1c1ccc(OC)c(Br)c1	inactive: -16.6%	–
CCC(C)n1c(=N)c(C#N)cc2c(=O)n3ccccc3nc21 (stereo not drawn)	inactive: 84.8%	–
Nc1nc2ncc(CNc3ccc(C(=O)NC(CCC(=O)O)C(=O)O)cc3)nc2c(=O)[nH]1 (stereo not drawn)	inactive: -5.7% and inactive: -23.9%	–
CC1=C(C(=O)O)N2C(=O)[C@@H](NC(=O)C(N)c3ccccc3)[C@H]2SC1 (stereo partly drawn)	inactive: -24.2%	–
CN(C)c1ccc(O)c2c1C[C@@H]1C[C@H]3C(N(C)C)C(=O)C(C(N)=O)=C(O)[C@@]3(O)C(=O)C1=C2O (stereo partly drawn)	–	active: 28.2 µM
COc1cc(/C=C/C(=O)c2cccs2)cc(OC)c1OC	–	active: 28.2 µM
Cc1nnc(SCc2cc(=O)oc3cc(O)ccc23)n1Cc1ccccc1	inactive: 45.8%	–
CC1COc2c(N3CCN(C)CC3)c(F)cc3c(=O)c(C(=O)O)cn1c23 (stereo not drawn)	inactive: -16.7%	–

SMILES	activity change, negative = inhibition	Potency
Cc1ccc(N2C(=O)/C(=C/c3ccco3)SC2=S)cc1	inactive: -9.87%	–
N#Cc1c(NC(=O)CCCN2C(=O)c3ccccc3C2=O)oc(-c2ccccc2)c1-c1ccccc1	inactive: 64.5%	–
Cn1c(=O)cc(OCC(=O)N2CCN(c3cccc(C(F)(F)F)c3)CC2)c2ccccc21	inactive: 44.9%	–
Cc1onc(-c2ccccc2Cl)c1C(=O)OCN1C(=O)c2ccccc2C1=O	–	active: 11.2 µM
COc1ccccc1CNC(=O)c1cccc(-c2ccc(C)c3ccccc23)n1	inactive: -26.4%	–
Cc1ccc(/C=N/c2sc3c(c2C#N)CCC3)o1	–	active: 15.8 µM
COC(=O)[C@@H]1[C@@H]2C[C@H]3c4[nH]c5cc(OC)ccc5c4CCN3C[C@@H]2C[C@H](OC(=O)c2cc(OC)c(OC)c(OC)c2)[C@H]1OC	inactive: -22%	–
O=[N+]([O-])c1cc2nc(O)c(O)nc2cc1[N+](=O)[O-]	inactive: -23.1%	–
CC1CCCN(C(=O)CCc2ccccc2)C1 (stereo not drawn)	–	active: 4.47 µM
CC(NC(=O)OC(C)(C)C)C(=O)Oc1ccc2ccc(=O)oc2c1 (stereo not drawn)	inactive: 99.2%	–
CCc1c(C)[nH]c(=S)c(C#N)c1C	–	active: 35.5 µM
COc1ccc(NC(=O)c2ccc(-c3ccc(-c4noc(C)n4)cc3C)cc2)cc1N1CCN(C)CC1	inactive: -16.2%	–
CCCCC[C@H](O)/C=C/[C@H]1[C@H](O)CC(=O)[C@@H]1CCCCCCC(=O)O	inactive: -10.2%	–
CCc1oc2ccccc2c1C(=O)c1cc(Br)c(O)c(Br)c1	inactive: -27.8% and inactive: -17.8%	–
O=C(N/N=C/c1ccc2c(c1)OCO2)c1cc(-c2ccccc2)nc2ccccc12	inactive: 242%	–
CSc1ccc(-c2c(C#N)c(N)nc3c2CCCC3)cc1	inactive: 164%	–
COCc1c(C)cc(C)c(/C=N/O)c1C	–	active: 14.1 µM
O=C(O)c1cc2ccccc2c(Cc2c(O)c(C(=O)O)cc3ccccc23)c1O	inactive: -2.19%	–
COc1ccc(/C=C/C(=O)c2c(O)ccc3c(C)cc(=O)oc23)cc1	inactive: -14.2%	–
CCCCNC(=O)c1ccc(CNc2c(N3CCC(C(=O)OCC)CC3)c(=O)c2=O)cc1	–	active: 3.55 µM
CC(C)NC[C@H](O)c1ccc(O)c(O)c1	inactive: -2.34% [middle of 4 runs]	–
O=C(CC(c1ccccc1)c1cc(Br)ccc1O)NCc1ccco1 (stereo not drawn)	–	active: 7.08 µM

SMILES	activity change, negative = inhibition	Potency
COCCCNC(=O)C1CCN(S(=O)(=O)c2c(C)noc2/C=C\c2ccc(OC)cc2)CC1	inactive: 632%	–
Cc1ccc(-c2cccc(NC(=O)C3C4C=CC(C4)C3C(=O)O)c2)o1 (stereo not drawn)	inactive: -16.7%	–
CC1=C(C(=O)O)N2C(=O)[C@@H](NC(=O)[C@@H](N)c3ccccc3)[C@@H]2SC1	inactive: -29.4%	–
COc1ccc2ccccc2c1C1CC(=O)N2CN(Cc3ccco3)CSC2=C1C#N (stereo not drawn)	–	active: 7.94 µM
O=C(NCc1ccco1)c1sc2cc(Cl)ccc2c1Cl	–	active: 15.8 µM
Cc1cccc(NC(=O)c2ccccc2Br)n1	–	active: 25.1 µM
CCc1ccc(C(=O)NN(C(=O)c2ccc(CC)cc2)C(C)(C)C)cc1	–	active: 25.1 µM
Cc1ccc(N=CC2=C(O)CC(c3ccc(Cl)cc3)CC2=O)cc1 (stereo not drawn)	inactive: 479%	–
CCCCc1c(C)c2ccc(OCC(C)=O)cc2oc1=O	inactive: 103%	–
COC(=O)C1=C(NC(=O)COc2ccc3ccccc3c2)CCS1	inactive: 106%	–
Cc1ccn2cc(CNC(=O)c3ccc(Br)o3)nc2c1	–	active: 15.8 µM
N#Cc1cc2[nH]c(=O)c(=O)[nH]c2cc1[N+](=O)[O-]	inactive: -27.7%	–
CCCCCC(=O)Nc1sc(C)c(C)c1C#N	–	active: 25.1 µM
COc1ccc2[nH]c(=S)[nH]c2c1	–	active: 28.2 µM
Cc1cc(SCC(=O)N/N=C/c2ccc(O)c(O)c2O)c(C)cc1Br	–	active: 10 µM
Cc1noc(/C=C/c2ccco2)c1S(=O)(=O)N1CCC(C(=O)NCc2ccco2)CC1	inactive: 30.5%	–
C=CCN(CC=C)c1cnn(-c2nc3ccccc3[nH]2)c(=O)c1Cl	inactive: 215%	–
CCCCCCc1ccc(O)cc1O	inactive: -13.3% and inactive: -26.3%	–
COc1cc2c(cc1OC)CN(c1ccc(-c3ccccc3OC)nn1)CC2	–	active: 35.5 µM
NC(=O)c1c(NC(=O)CSc2nnc(-c3ccco3)n2-c2ccccc2)sc2c1CCC2	–	active: 28.2 µM
COc1ccc(NC(=S)NCc2ccc(S(N)(=O)=O)cc2)c(OC)c1	–	active: 14.1 µM
O=C(COC(=O)c1ccc(S(=O)(=O)N2CCOCC2)cc1)Nc1nc(-c2ccccc2)cs1	inactive: 81.9%	–

SMILES	activity change, negative = inhibition	Potency
Cc1coc(NC(=O)CSc2nc(-c3ccc(Cl)cc3)cc(C(F)(F)F)c2C#N)n1	inactive: 39.6%	–
CCOc1ccccc1NC(=O)C(OC(=O)c1ccccc1O)c1ccccc1 (stereo not drawn)	inactive: 48.4%	–
Cn1cccc1C(=O)N1CCC2(CC1)CCN(c1ccccc1)CC2	inactive: -6.59%	–
Cc1cccc(CNc2nc(-c3c(C)noc3C)nc3ccccc23)c1	inactive: 62.4%	–
Cn1c(-c2ccc3c(c2)OCO3)cnc1NCc1ccccc1	–	active: 15.8 µM
CC(C)Cn1c(N)c(C(=O)COC(=O)c2cc(C(F)(F)F)nc3ccccc23)c(=O)n(C)c1=O	inactive: -18.3%	–
CCNC(=O)/C(=C\c1ccc2c(c1)OCO2)NC(=O)c1ccc(Br)cc1	inactive: -1.75%	–
CN1CCN2c3ccccc3Cc3ccccc3[C@@H]2C1	inactive: -8.29% and inactive: -16.1%	–
CCCc1c(C)c2ccc(OCC(C)=O)cc2oc1=O	inactive: 190%	–
CCCC[C@H]1C(=O)N(c2ccccc2)N(c2ccc(O)cc2)C1=O	inactive: -29%	–
COc1cccc(/C=N/NC(=O)c2ccc(COc3ccc(Cl)cc3Cl)o2)c1	inactive: 32.2%	–
Cc1[nH]c(=O)c(C#N)cc1-c1ccncc1	inactive: -6.51% and inactive: -18.6%	–
O=C1CCCN1c1ccc(S(=O)(=O)Oc2ccc(Cl)cc2)cc1[N+](=O)[O-]	–	active: 7.94 µM
CC1(C)S[C@H]2[C@@H](NC(=O)C(N)c3ccccc3)C(=O)N2[C@H]1C(=O)O (stereo partly drawn)	inactive: -29.2%	–
COc1ccc(C2C(=O)c3ccccc3C2=O)cc1	inactive: -13.2%	–
CCOc1cc(/C=C/c2nc3cc(C)c(C)cc3s2)ccc1OCC(=O)N1CCOCC1	inactive: 278%	–
CC(=O)c1cc2c(cc1NC(=O)CN1CCN(c3cccc(C(F)(F)F)c3)CC1)OCO2	inactive: 55.7%	–
CN(C)C(=O)c1ccc(-c2nc(NCc3cccs3)c3ccccc3n2)cc1	–	active: 15.8 µM
COCCCN(C(=O)c1ccco1)c1nc(-c2cc(OC)ccc2OC)cs1	inactive: 50.9%	–
Cc1ccccc1Nc1nnc(SCc2cc([N+](=O)[O-])cc3c2OCOC3)s1	–	active: 14.1 µM
Nc1ccc(-c2cc(-c3cccc(N)c3)nc(-c3ccccc3)n2)cc1	inactive: 60.2%	–
Cn1c(=O)c(C(=O)COC(=O)c2cc(C(F)(F)F)nc3ccccc23)c(N)n(Cc2ccccc2)c1=O	inactive: -20.1%	–
